PMC12040169 (PLOS Biology, 2025)
The list shows a part of the results.

Tested on: T1, C. trachomatis L2/434/Bu expressing GFP (CTL2-GFP)
T1 construct: L2/434/Bu GFP intracellular growth in HeLa cells
Design: species or system HeLa; C. trachomatis total inclusion area by high-content imaging, normalised to DMSO
Settings: total inclusion area; 28.5 h, 10 µM; inhibitor
Procedure, shortened: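 Bulk GFP and resorufin signals were read first. Wells were then fixed, stained with Hoechst and imaged to detect GFP inclusions and host nuclei. MICs followed the previously described calculation.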

Row | SMILES | % of control remaining
1 | Cc1cc(C)n(CC(C)NC(=O)N2CCC(Oc3cccnc3)C2)n1 (stereo not drawn) [CBK305342] | 16.348
2 | COc1cc(C2Nc3ccccc3-c3nc(SC)nnc3O2)ccc1OCC(=O)O (stereo not drawn) [CBK262687] | 111.557
3 | COC1C(O)C(CO)OC1n1cnc2c(=O)[nH]cnc21 (stereo not drawn) [CBK201328] | 110.519
4 | COc1ccc(C(C)C)cc1-c1cncc(NCCc2ccccn2)n1 [CBK065325] | 126.69
5 | CC(CCCC(C)(C)O)Nc1cc(N2CCN(C)CC2)n2nccc2n1 (stereo not drawn) [CBK037103] | 71.3139
6 | Cc1noc(N)c1C1OC(=O)c2ccccc21 (stereo not drawn) [CBK022932] | 66.5034
7 | COc1cc([N+](=O)[O-])ccc1-c1ccc(/C=c2\sc3nc4cc(Br)cnc4n3c2=O)o1 [CBK262579] | 84.7083
8 | CC1CN(c2ccccc2Br)NC1=O (stereo not drawn) [CBK026500] | 27.8711
9 | Cc1cc(C(=O)N2CCN(C(=O)c3cn(Cc4ccc(S(C)(=O)=O)cc4)nn3)CC2)n(C)n1 [CBK160824T] | 97.9152
10 | CC(=O)NC(CC(=O)N1CCCC(n2cccn2)C1)c1cccs1 (stereo not drawn) [CBK305405] | 25.1095
11 | COc1nccc(N2CCN(C)C3(CCNC(=O)CC3)C2)c1C#N (stereo not drawn) [CBK307676] | 106.776
12 | O=C(O)CNC(=O)/C(=C\c1ccco1)NC(=O)c1ccccc1Cl [CBK263967] | 104.491
13 | Cc1c(C)n(CC(=O)O)c2ccccc12 [CBK000884] | 64.0967
14 | O=C1/C(=C/c2ccccc2)S/C(=N/N=C/c2ccccc2)N1c1ccc(O)cc1 [CBK262803] | 115.591
15 | Cc1cc(OC(C)C(=O)Nc2ncccc2C)ccc1Cl (stereo not drawn) [CBK269637] | 87.0339
16 | O=S1(=O)N=C(Nc2ccc(S(=O)(=O)N3CCOCC3)cc2)c2ccccc21 [CBK269116] | 83.1047
17 | O=C(c1ccc(-c2cncc(-c3cc4ccccc4[nH]3)c2)cc1)N1CCOCC1 [CBK158419T] | 95.244
18 | O=C(O)CNS(=O)(=O)c1ccc2ccccc2c1 [CBK034460] | 108.926
19 | Cn1c(SCCN2CCOCC2)nnc1-c1cccs1 [CBK010243] | 16.0023
20 | CS(=O)(=O)N(CC(=O)NCc1ccccn1)c1ccc(I)cc1 [CBK265369] | 111.856
21 | O=C(Nc1nc(OCCN2CCCC2=O)cnc1/C=C\c1ccccc1)c1cc2ccccc2s1 [CBK145380] | 67.4944
22 | CC(C)(C)NC(=O)NCC(c1ccc[nH]1)C(F)(F)F (stereo not drawn) [CBK021595] | 83.8919
23 | Cc1c(C(=O)O)sc2nc(C=Cc3ccc(OCCC(C)C)cc3)[nH]c(=O)c12 [CBK297539] | 107.823
24 | c1ccc(C(NCc2cnc(-c3cnccn3)s2)C2CCC2)cc1 (stereo not drawn) [CBK304016] | 64.2666
25 | Brc1cccc(OCc2cccs2)c1 [CBK176011] | 35.5722
26 | CC(C)(O)C#Cc1ccccc1C(=O)NC(Cc1c[nH]c2ccccc12)C(=O)O (stereo not drawn) [CBK267701] | 110.336

Row | SMILES | % of control remaining
27 | CCOc1ncccc1NC(=O)C(C)n1cccn1 (stereo not drawn) [CBK245377] | 98.3764
28 | Cc1ccc(-n2c(SCC(N)=O)nnc2-c2ccccc2O)c(C)c1 [CBK269673] | 104.823
29 | O=C(O)c1ccc(S(=O)(=O)Nc2nnc(C(F)(F)F)s2)cc1 [CBK062023] | 107.227
30 | COc1ccc(-c2nccnc2OC)c(OC)c1 [CBK107039] | 109.175
31 | CC1(C)CCCC2=C1CC(C(=O)O)C(C(=O)NCc1cccnc1)C2 (stereo not drawn) [CBK286795] | 88.5066
32 | O=C(O)C1CCCN(C(=O)NCc2ccc(F)cc2)C1 (stereo not drawn) [CBK161364] | 63.5472
33 | O=C(CN1C(=O)S/C(=C\c2ccccc2OCc2ccccc2)C1=O)c1ccc(Cl)cc1 [CBK264628] | 97.4254
34 | CCN1C(=O)CC2(C1=O)C(=O)N(CCCOc1ccc(Cl)cc1)c1ccc(C)cc12 (stereo not drawn) [CBK075648] | 108.922
35 | Cc1cc(C)n(-c2ccc3nnc(CCC(=O)Nc4nccs4)n3n2)n1 [CBK307617] | 91.4524
36 | COc1ccccc1CC(=O)N1CCn2cc(C(F)(F)F)nc2C1 [CBK283806] | 88.3372
37 | CCCCSc1nnc(NS(=O)(=O)c2ccc(NC(C)=O)cc2)s1 [CBK022853] | 90.1765
38 | CC(C)(C)c1ccc(-n2cc(-c3ccc(F)cc3F)nn2)cc1 [CBK094818] | 76.1169
39 | CC1(C)CC(=O)C=C(C(=O)Nc2c(F)cc(F)cc2OC2CCNCC2)O1 [CBK050332T] | 34.4737
40 | CN(C)c1oc(-c2ccccc2)nc1S(=O)(=O)c1ccccc1 [CBK021477] | 69.7858
41 | COc1ccc(S(=O)(=O)NC(C)C(=O)NCc2ccncc2)cc1 (stereo not drawn) [CBK269441] | 78.0044
42 | COc1ccc(S(=O)(=O)N(CC(=O)O)c2ccc(Cl)cc2)cc1OC [CBK267836] | 111.921
43 | O=C(Cc1cn2ccsc2n1)NCCCN1CCCc2ccccc21 [CBK306611] | 85.4629
44 | Cc1oc2ccc(O)cc2c1C(=O)N(C)CCOc1ccccc1 [CBK282696] | 132.307
45 | N=C1NC(=O)/C(=C/c2ccc(OC(=O)c3cccc([N+](=O)[O-])c3)cc2)S1 [CBK263606] | 109.708
46 | Nc1ncnc2[nH]c(SCc3nc4ccc(I)cc4c(=O)n3-c3ccccc3)nc12 [CBK267174] | 99.8167
47 | O=C(CC(C(=O)O)n1cccn1)c1ccc(Br)cc1 (stereo not drawn) [CBK269541] | 125.504
48 | O=C(NCc1ccco1)c1cc(S(=O)(=O)N2CCOCC2)ccc1Br [CBK269907] | 102.742
49 | N=C1NC(=O)/C(=C/c2cccc(OCCOc3ccc(C4CCCCC4)cc3)c2)S1 [CBK263956] | 101.311
50 | CCN(Cc1cn2cccc(C(=O)OC)c2n1)CC1CCOC1 (stereo not drawn) [CBK304880] | 45.9162
51 | Cc1nc2ccc(NC(=O)CC3CCN(C(=O)CC4CCCCC4)CC3)cc2[nH]1 [CBK285967] | 151.676
